Results reported in a compilation of properties of binary mixtures (doi:10.2298/jsc190413047v).
Some of these densities may be calculated back from excess volumes.

Test: xn = mol fraction of the nth substance listed
Conditions: 100 kPa

CCCC[n+]1ccn(CC)c1.[Br-] + O
mass density [kg/m3]
Conditions | 293.15 K | 298.15 K | 303.15 K | 308.15 K | 313.15 K | 318.15 K | 323.15 K
x2 = 0 | – | 1259.4 | 1256 | 1252.5 | 1248.9 | 1245.5 | 1241.9
x2 = 0.1059 | 1260.8 | 1257.2 | – | 1250.1 | 1246.6 | 1243 | 1239.4
x2 = 0.2103 | 1258.3 | 1254.8 | 1251.3 | 1247.7 | 1244.2 | 1240.6 | 1237.1
x2 = 0.235 | 1257.7 | 1254.2 | 1250.7 | 1247.1 | 1243.6 | 1240.1 | 1236.5
x2 = 0.329 | 1254.8 | 1251.3 | 1247.9 | 1244.4 | 1241 | – | 1233.9
x2 = 0.4253 | 1250.9 | – | – | 1240.5 | 1237.1 | 1233.7 | –
x2 = 0.4747 | 1248.2 | 1244.6 | 1241.3 | 1237.9 | 1234.4 | 1230.9 | 1227.4
x2 = 0.53 | 1244.5 | – | 1237.5 | – | – | 1227 | 1223.5
x2 = 0.6008 | 1238.1 | – | 1231.1 | – | 1224.1 | 1220.5 | 1216.9
x2 = 0.6599 | – | 1227.3 | 1223.7 | 1220.2 | 1216.5 | 1212.9 | 1209.4
x2 = 0.7048 | 1223.7 | 1220.1 | 1216.5 | – | 1209.2 | 1205.4 | 1201.7
x2 = 0.7965 | – | 1197.8 | 1194 | 1190.2 | 1186.4 | – | 1178.9
x2 = 0.9011 | 1147.3 | 1144.6 | 1141.1 | 1137.5 | – | – | 1126.7
x2 = 0.9492 | – | 1095.7 | 1092.8 | – | 1086.7 | 1083.5 | –

CCCCCCCCn1cc[n+](C)c1.O=S(=O)([N-]S(=O)(=O)C(F)(F)F)C(F)(F)F + O=C1CCCO1
Conditions | mass density [kg/m3]
313.15 K, x2 = 0.7994 | 1218.5

CCCCCC[n+]1ccn(C)c1.O=S(=O)([N-]S(=O)(=O)C(F)(F)F)C(F)(F)F + O=C1CCCO1
Conditions | mass density [kg/m3]
313.15 K, x2 = 0.9493 | 1156.5

CCCC[N+]1(C)CCCC1.O=S(=O)([N-]S(=O)(=O)C(F)(F)F)C(F)(F)F + O=C1CCCO1
mass density [kg/m3]
Conditions | 293.15 K | 298.15 K | 303.15 K | 308.15 K | 313.15 K | 318.15 K | 323.15 K
x2 = 0 | 1399 | 1394.6 | 1390 | 1385.5 | 1380.9 | 1376.3 | 1371.6
x2 = 0.0551 | 1394.4 | 1390 | 1385.5 | 1381 | 1376.4 | 1371.8 | –
x2 = 0.1124 | 1389.7 | 1385.3 | 1380.9 | 1376.4 | 1371.8 | 1367.2 | 1362.5
x2 = 0.2001 | – | 1377.8 | 1373.3 | 1368.8 | 1364.2 | 1359.5 | 1354.8
x2 = 0.2625 | 1376.1 | – | 1367.2 | 1362.7 | 1358 | 1353.4 | 1348.7
x2 = 0.3443 | 1367.1 | 1362.6 | 1358.1 | 1353.4 | 1348.8 | 1344.1 | 1339.3
x2 = 0.401 | 1359.8 | – | 1350.7 | 1346 | 1341.4 | 1336.6 | –
x2 = 0.4486 | 1352.9 | 1348.3 | 1343.7 | 1339 | 1334.4 | 1329.6 | –
x2 = 0.5079 | 1343.1 | 1338.5 | 1333.8 | 1329.2 | – | 1319.7 | 1314.9
x2 = 0.5985 | – | 1320.4 | 1315.7 | – | – | 1301.4 | 1296.5
x2 = 0.6545 | 1311.4 | 1306.8 | – | – | – | 1287.7 | 1282.8
x2 = 0.6946 | 1300.2 | 1295.6 | 1290.8 | 1286.1 | 1281.3 | 1276.4 | –
x2 = 0.7593 | 1279 | 1274.3 | 1269.5 | 1264.7 | 1259.9 | 1254.9 | 1250
x2 = 0.8052 | 1260.8 | 1256 | – | 1246.4 | 1241.6 | 1236.6 | 1231.6
x2 = 0.9043 | 1208.5 | 1203.7 | 1198.8 | 1193.9 | – | 1183.9 | 1178.8
x2 = 0.9509 | 1174.7 | 1169.8 | – | 1160 | 1154.9 | 1149.9 | –
x2 = 0.9746 | 1154.3 | 1149.4 | 1144.4 | 1139.4 | – | 1129.3 | 1124.1

CCCC[n+]1ccn(C)c1.O=S(=O)([N-]S(=O)(=O)C(F)(F)F)C(F)(F)F + O=C1CCCO1
x2 = 0
Conditions | mass density [kg/m3]
293.15 K | 1439.3
308.15 K | 1424.6
313.15 K | 1419.6
318.15 K | 1414.7
323.15 K | 1409.7

CCCn1cc[n+](C)c1.O=S(=O)([N-]S(=O)(=O)C(F)(F)F)C(F)(F)F + O=C1CCCO1
Conditions | mass density [kg/m3]
318.15 K, x2 = 0.9001 | 1204.5
323.15 K, x2 = 0.2002 | 1427.5

CCCn1cc[n+](C)c1C.O=S(=O)([N-]S(=O)(=O)C(F)(F)F)C(F)(F)F + O=C1CCCO1
Conditions | mass density [kg/m3]
318.15 K, x2 = 0.8508 | 1235.5

Cn1cc[n+](C)c1.O=S(=O)([N-]S(=O)(=O)C(F)(F)F)C(F)(F)F + O=C1CCCO1
Conditions | mass density [kg/m3]
313.15 K, x2 = 0.5002 | 1451.5
323.15 K, x2 = 0.7009 | 1357.5
